From publication PMC4336329 (PLoS ONE, 2015)
Out of some 310,000 compounds screened, about 2,200 (0.71%) showed an effect of 50% or more. The effect is printed as a negative number. The list shows a part of the results.

biological target: human ether-à-go-go-related gene (hERG) potassium channel (human, UniProt Q12809); assay: primary screen, population patch clamp on CHO cells stably expressing hERG
Sequence (Q12809 whole entry, looked up): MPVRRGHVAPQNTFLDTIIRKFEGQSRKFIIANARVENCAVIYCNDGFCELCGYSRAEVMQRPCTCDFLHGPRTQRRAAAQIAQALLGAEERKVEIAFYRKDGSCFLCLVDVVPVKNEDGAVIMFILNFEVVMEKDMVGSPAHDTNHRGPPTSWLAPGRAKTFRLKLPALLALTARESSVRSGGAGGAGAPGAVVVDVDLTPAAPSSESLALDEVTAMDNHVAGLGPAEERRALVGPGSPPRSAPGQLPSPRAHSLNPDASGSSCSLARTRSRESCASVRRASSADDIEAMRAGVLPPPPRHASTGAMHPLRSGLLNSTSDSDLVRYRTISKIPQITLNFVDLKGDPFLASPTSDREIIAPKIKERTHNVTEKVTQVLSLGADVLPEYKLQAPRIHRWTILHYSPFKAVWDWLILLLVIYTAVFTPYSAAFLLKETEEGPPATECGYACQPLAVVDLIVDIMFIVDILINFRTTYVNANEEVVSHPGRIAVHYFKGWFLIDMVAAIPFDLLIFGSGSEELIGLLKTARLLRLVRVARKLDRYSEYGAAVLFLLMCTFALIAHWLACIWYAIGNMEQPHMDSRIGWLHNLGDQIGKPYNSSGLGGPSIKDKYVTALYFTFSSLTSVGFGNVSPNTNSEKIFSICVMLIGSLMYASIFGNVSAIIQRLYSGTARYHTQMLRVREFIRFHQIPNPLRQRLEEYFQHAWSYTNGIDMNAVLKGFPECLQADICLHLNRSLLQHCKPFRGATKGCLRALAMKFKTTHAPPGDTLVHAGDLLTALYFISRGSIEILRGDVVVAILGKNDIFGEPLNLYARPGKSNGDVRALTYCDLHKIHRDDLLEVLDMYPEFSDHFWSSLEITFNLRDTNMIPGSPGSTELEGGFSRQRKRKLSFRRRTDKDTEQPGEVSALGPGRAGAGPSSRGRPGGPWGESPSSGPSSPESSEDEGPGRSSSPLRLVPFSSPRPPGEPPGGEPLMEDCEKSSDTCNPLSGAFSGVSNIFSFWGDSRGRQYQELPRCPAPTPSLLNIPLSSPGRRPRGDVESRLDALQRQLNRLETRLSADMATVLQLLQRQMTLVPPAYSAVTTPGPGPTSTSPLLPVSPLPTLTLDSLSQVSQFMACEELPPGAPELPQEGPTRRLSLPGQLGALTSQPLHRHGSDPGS

| SMILES | hERG current change (%, negative = inhibition) at 1uM |
| --- | --- |
| Cc1ccccc1-c1nnc(SCc2ccccc2)o1 | 0.459% |
| O=C(O)c1ccc(NC(CSCc2cccc(F)c2)C(=O)O)c([N+](=O)[O-])c1 (stereo not shown) | 17.3% |
| COc1ccc(OCC(=O)Nc2c(C(=O)N3CCC(N4CCCCC4)CC3)oc3ccccc23)cc1 | -82.8% |
| Oc1ccc(Cl)cc1C1=NNC(c2cccs2)C1 (stereo not shown) | 16% |
| O=C(CSc1ncccn1)NCc1ccc(F)cc1 | 6.72% |
| COc1ccc(C(=O)Nc2nc(CC(=O)NCCc3ccccc3OC)cs2)cc1 | 0.571% |
| CC(=O)Nc1ccc(S(=O)(=O)N2CCN(c3cc(C)nc4ccccc34)CC2)cc1 | -71.6% |
| Cc1c(NC(=S)N/C(=N/S(=O)(=O)c2ccc(Cl)cc2)c2ccccc2)c(=O)n(-c2ccccc2)n1C | 14.4% |
| CN(C)S(=O)(=O)c1ccc(NC(=O)N2CCN(c3cccc(C(F)(F)F)c3)CC2)cc1 | 12.7% |
| CC1CCCCN1C(=O)CCS(=O)(=O)c1cc2c(cc1Cl)NC(=O)CO2 (stereo not shown) | 0.71% |
| N/C(=N\OC(=O)C12CC3CC(CC(C3)C1)C2)c1cccnc1 | 5.26% |
| COCCn1c(=S)[nH]c2ccc(N(C)C)cc2c1=O | 5.29% |
| CCOc1cc(/C=N/NC(=O)c2cccc([N+](=O)[O-])c2)ccc1OS(=O)(=O)c1ccccc1 | -10.8% |
| Cc1ccc(Cl)cc1NC(=S)N(Cc1ccco1)C(C)c1cccs1 (stereo not shown) | 12.6% |
| COc1cc(/C=N/NC(=O)c2ccccc2)ccc1O | -5.66% |
| CCOc1c(Cl)cc(CNc2nnnn2C)cc1OC | 15.1% |
| O=c1cc(O)sc2ccccc12 | 11.3% |
| O=C(COc1ccc(C(=S)N2CCOCC2)cc1Cl)Nc1ccccc1Cl | 14.4% |
| CCOc1ccc(NC(=O)COC(=O)CCS(=O)(=O)c2ccc(C)cc2)cc1 | 9.19% |
| NC(=O)c1ccc(C2SCC(=O)N2CCc2ccccc2)cc1 (stereo not shown) | 7.05% |
| Cc1ccc(S(=O)(=O)C/N=C(/NC(=S)N(c2ccccc2)c2ccccc2)c2ccccc2)cc1 | 7.99% |
| Cc1cccc(N2C(=O)CC(SC(N)=Nc3ccccc3)C2=O)c1 (stereo not shown) | -9.43% |
| NC(=O)c1ccc(NC(=O)C2CC(=O)N(c3ccc4c(c3)OCCO4)C2)cc1 (stereo not shown) | 3.82% |
| CC(C)c1ncc(S(=O)(=O)c2ccc(C(F)(F)F)cn2)c(N)n1 | 14.3% |
| CC(=O)Nc1ccc(S(=O)(=O)N2CCN(Cc3cccs3)CC2)cc1.O=C(O)C(=O)O | 6% |
| O=S(=O)(c1ccccc1)N1CCc2ccccc2C1 | 14.6% |
| C/C(=N\OC(=O)c1c(-c2c(F)cccc2Cl)noc1C)c1nccs1 | 10.3% |
| COC(=O)c1ccc(C)c(NS(=O)(=O)c2ccc(OC)c(OC)c2)c1 | 4.06% |

| SMILES | hERG current change (%, negative = inhibition) at 1uM |
| --- | --- |
| O=C(c1cnc(N2CCN(c3ccccn3)CC2)c2ccccc12)N1CCN(c2cccc(Cl)c2)CC1 | -19.9% |
| C=CCn1c(SCC(=O)Nc2ccccc2)nnc1-c1cccc(S(=O)(=O)N2CCOCC2)c1 | 3.54% |
| O=C(NCc1ccco1)c1cc2ccccc2c(=O)o1 | 19.5% |
| O=C(Cn1cc(C(=O)C2CCCCC2)c2ccccc21)NCC1CCCO1 (stereo not shown) | 10.4% |
| Cc1ccc(S(=O)(=O)N(C)C)cc1NC(=O)COC(=O)Cc1ccc(Br)cc1 | -3.8% |
| O=[N+]([O-])c1cccc(S(=O)(=O)NCc2ccccn2)c1 | 18.3% |
| COc1cccc(NC(=O)COc2ccc(N3CC(C(=O)NCC(C)C)CC3=O)cc2)c1 (stereo not shown) | 12.7% |
| c1ccc(-c2ccccc2OCCN2CCCC2)cc1 | 1.5% |
| Cc1ccccc1Nc1nc(-c2cccnc2)nc2ccccc12.Cl | 4.67% |
| CC1(C)CC2CC(C)(CN2S(=O)(=O)c2ccc(C(=O)Nc3cc(S(=O)(=O)N4CCOCC4)ccc3Cl)cc2)C1 (stereo not shown) | 13.3% |
| COc1ccc(/C=C(/NC(=O)c2ccco2)C(=O)N2CCc3ccccc32)cc1OC | 10.4% |
| O=C(CSc1ccc2ccccc2n1)Nc1ccc(N2CCOCC2)cc1 | 9.91% |
| O=C(COc1ccc2c(c1)C(=O)CC1(CCCCC1)O2)NCc1ccccn1 | -1.75% |
| Cc1c(S(=O)(=O)Nc2ccc3c(c2)OCCO3)cnn1C | 8.87% |
| CCCCc1nc2cc(C(=O)N3CCC[C@H]3CO)ccc2o1 | 12.8% |
| CC(C)OC(=O)c1c(NC(=O)C2CC=CCC2C(=O)O)sc2c1CCCCC2 (stereo not shown) | -0.316% |
| Cc1cc(C)n(-c2nc3sc4c(c3c(=O)[nH]2)CCCC4)n1 | 4.56% |
| CCCC(=O)NC(=S)NNC(=O)c1ccc([N+](=O)[O-])cc1 | 9.56% |
| O=S(=O)(c1cccc2nsnc12)N1CCN(c2ccc(F)cc2)CC1 | -6.67% |
| O=C1NC(=S)NC(=O)C1=Cc1ccc2c(c1)CCN2CCCCl | 9.99% |
| COc1cccc(-c2ncc3ccccc3c2COC(=O)c2cccs2)c1 | 3.67% |
| O=C(CN1CCS(=O)(=O)CC1)NNC(=O)C1CCCCC1 | 0.757% |
| Cc1ccccc1C(=O)NNc1ncnc2c1cnn2C | 4.15% |
| COc1ccc(/C=N/Nc2nonc2N)c(OC)c1 | 4.22% |
| C[N+](C)(C)CC#CCOC(=O)Nc1cccc(Cl)c1.[Cl-] | 10.3% |
| CSc1nnc(Cc2ccc3c(c2)OCO3)o1 | 9.09% |
| CCN1C[C@]2(C)CC[C@H](OC)[C@]34C2[C@H](OC(C)=O)[C@@]2(OCO[C@@]25C[C@H](OC)[C@H]2C[C@]3(O)C5[C@H]2OC)[C@@H]14 | 26% |
